In all, about 81,000 sequences were measured (“one-hybrid fitness for binding NBS DNA”: median about -0.1, highest 2% from about 0.36 on). Some of the results follow.
B1: Caulobacter ParB omega fusion; a variant is named by its letters at X, in order, B8GW30 (parent)
chain: MESVVVGEPGMSEGRRGLGRGLSALLGEVDAAPAQAPGEQLGGSREAPIEILQRNPDQPRRTFREEDLEDLSNSIREKGVLQPILVRPSPDTAGEYQIVAGERAWRAAQRAGLKTVPIMVRELDDLAVLEIGIIENVQRADLNVLEEALSYKVLMEKFERTQENIAQTIGKSXSHVANXMRLLXLPDEVQSYLVSGELTAXHARAIAAAADPVALAKQIIEGGLSVRETEALARKAPNLSAGKSKGGRPPRVKDTDTQALESDLSSVLGLDVSIDHRGSTGTLTITYATLEQLDDLCNRLTRGI

Variants of: B1
Assay: one-hybrid fitness for binding NBS DNA (the Noc-binding site; scaled: cognate 1, non-cognate 0); higher = stronger binding
Details: with NBS DNA site
Outline: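 Selection: bacterial one-hybrid in E. coli USO, HIS3 reporter with the site 19 bp from the promoter, 48 hours at 37°C on M9-minus-histidine plus 0.1 mM IPTG and 5 mM 3-AT. Libraries were Caulobacter ParB with four randomised specificity codons, sequenced on Illumina before and after selection. Fitness is the rescaled log change in variant-to-wild-type read ratio, anchored to the cognate and non-cognate sites.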

Variant | one-hybrid fitness for binding NBS DNA
INRC | ≤ 0.2
QRRW | 0.384
AERF | ≤ 0.2
VWQC | ≤ 0.2
MAHE | ≤ 0.2
LYCH | ≤ 0.2
NRDS | ≤ 0.2
GYGR | ≤ 0.2
TTPQ | ≤ 0.2
KNGG | ≤ 0.2
MTRR | 0.273
EVLF | ≤ 0.2
HPSV | ≤ 0.2
QNIR | ≤ 0.2
CKPI | ≤ 0.2
RKYD | ≤ 0.2
RKRI | ≤ 0.2
HTGG | ≤ 0.2
KHSV | ≤ 0.2
RAPH | ≤ 0.2
SGLG | ≤ 0.2
LWPM | ≤ 0.2
LYCD | ≤ 0.2
KNSV | ≤ 0.2

Variant | one-hybrid fitness for binding NBS DNA
KEFG | ≤ 0.2
SIKR | ≤ 0.2
QKPT | 0.306
TQIL | ≤ 0.2
FDPE | ≤ 0.2
RATN | ≤ 0.2
ANQC | ≤ 0.2
SITR | ≤ 0.2
KKFS | ≤ 0.2
RRAG | 0.357
ESIC | ≤ 0.2
HFLG | ≤ 0.2
GPMT | ≤ 0.2
QFRT | 0.309
SSGF | ≤ 0.2
VTRA | ≤ 0.2
ASRW | ≤ 0.2
IRKE | ≤ 0.2
EYDS | ≤ 0.2
GWLW | ≤ 0.2
MIRG | ≤ 0.2
MSSK | ≤ 0.2
KGQM | ≤ 0.2
NGEC | ≤ 0.2

Variant | one-hybrid fitness for binding NBS DNA
ELIG | ≤ 0.2
PPNR | ≤ 0.2
AHSC | ≤ 0.2
SSAS | ≤ 0.2
QGNV | ≤ 0.2
LTGI | ≤ 0.2
AVEY | ≤ 0.2
VVNV | ≤ 0.2
SWRE | ≤ 0.2
AFCT | ≤ 0.2
LERC | ≤ 0.2
QELY | ≤ 0.2
NGLK | ≤ 0.2
VYMM | ≤ 0.2
SPWL | ≤ 0.2
LQTV | ≤ 0.2
LSMI | ≤ 0.2
RQFW | ≤ 0.2
YRAD | ≤ 0.2
YPAL | ≤ 0.2
PVKF | ≤ 0.2
DGLG | ≤ 0.2
VIIF | ≤ 0.2
NRSY | ≤ 0.2

Variant | one-hybrid fitness for binding NBS DNA
IPHT | ≤ 0.2
IDQC | ≤ 0.2
YQEC | ≤ 0.2
KVHL | ≤ 0.2
LLGG | ≤ 0.2
MNAL | ≤ 0.2
ERHY | ≤ 0.2
CFSG | ≤ 0.2
NRHD | ≤ 0.2
TMTA | ≤ 0.2
IFSF | ≤ 0.2
MQSN | ≤ 0.2
WLFI | ≤ 0.2
YDYT | ≤ 0.2
HMAS | ≤ 0.2
APAV | ≤ 0.2
MLAW | ≤ 0.2
EPLE | ≤ 0.2
CSSS | ≤ 0.2
LDNI | ≤ 0.2
GDRY | ≤ 0.2
NMCC | ≤ 0.2
HPIR | ≤ 0.2
FHLG | ≤ 0.2

Variant | one-hybrid fitness for binding NBS DNA
SKAL | ≤ 0.2
PEPV | ≤ 0.2
PHIH | ≤ 0.2
TPSG | ≤ 0.2
GHVR | ≤ 0.2
DQFG | ≤ 0.2
ACSG | ≤ 0.2
PQQI | ≤ 0.2
YDKE | ≤ 0.2
VDPE | ≤ 0.2
CVVG | ≤ 0.2
QGDV | ≤ 0.2
KDVR | ≤ 0.2
RKLI | ≤ 0.2
LSVA | ≤ 0.2
EATG | ≤ 0.2
WLLY | ≤ 0.2
THFP | ≤ 0.2
HRTR | ≤ 0.2
AHCT | ≤ 0.2
RGDP | ≤ 0.2
FHFS | ≤ 0.2
WYFL | ≤ 0.2
RDPV | ≤ 0.2

Variant | one-hybrid fitness for binding NBS DNA
SAQS | ≤ 0.2
DKMS | ≤ 0.2
LWQG | ≤ 0.2
DEKS | ≤ 0.2
SHDT | ≤ 0.2
SGLF | ≤ 0.2
SKLY | ≤ 0.2
AVPS | ≤ 0.2
LLID | ≤ 0.2
AGEG | ≤ 0.2
DRRH | ≤ 0.2
ADNY | ≤ 0.2
RCWL | ≤ 0.2
QQQN | ≤ 0.2
GWHG | ≤ 0.2
PPKG | ≤ 0.2
DGQV | ≤ 0.2
KPLT | ≤ 0.2
ANVR | ≤ 0.2
YKRV | ≤ 0.2
KVQR | ≤ 0.2
GYCS | ≤ 0.2
THLA | ≤ 0.2
GNYT | ≤ 0.2

Variant | one-hybrid fitness for binding NBS DNA
LCQT | ≤ 0.2
FAPW | ≤ 0.2
SMCR | ≤ 0.2
TTSC | ≤ 0.2
PALT | ≤ 0.2
IFVS | ≤ 0.2
RRYM | 0.296
YPCV | ≤ 0.2
QYAK | ≤ 0.2
IQQS | ≤ 0.2
VFVD | ≤ 0.2
RPSH | ≤ 0.2
KYTL | ≤ 0.2
YDDT | ≤ 0.2
QRKH | 0.766
HNRN | ≤ 0.2
QTKY | 0.658
WYRT | ≤ 0.2
LFMG | ≤ 0.2
GHHG | ≤ 0.2
PPTC | ≤ 0.2
EYLG | ≤ 0.2
RYYW | ≤ 0.2
SFSL | ≤ 0.2

Variant | one-hybrid fitness for binding NBS DNA
MEMS | ≤ 0.2
ERFR | ≤ 0.2
ISIL | ≤ 0.2
TETS | ≤ 0.2
QEGT | ≤ 0.2
QELV | ≤ 0.2
TRGR | 0.389
AYPR | ≤ 0.2
VNWS | ≤ 0.2
RHVY | ≤ 0.2
LYMD | ≤ 0.2
KLVA | ≤ 0.2
RIML | ≤ 0.2
FGDM | ≤ 0.2
CFNG | ≤ 0.2
TMWP | ≤ 0.2
PTDF | ≤ 0.2
MWIV | ≤ 0.2
TNKT | ≤ 0.2
WGMR | ≤ 0.2
LCCS | ≤ 0.2
CMPG | ≤ 0.2
GFRL | ≤ 0.2
ERHC | ≤ 0.2

Variant | one-hybrid fitness for binding NBS DNA
RNNI | ≤ 0.2
HEDP | ≤ 0.2
VPRK | ≤ 0.2
HHSK | ≤ 0.2
KMGD | ≤ 0.2
YLTW | ≤ 0.2
RHDY | ≤ 0.2
HSSE | ≤ 0.2
GQER | ≤ 0.2
KMGS | ≤ 0.2
KNDS | ≤ 0.2
TDVI | ≤ 0.2
AELY | ≤ 0.2
FASK | ≤ 0.2
IKWT | ≤ 0.2
TGLR | ≤ 0.2
PTRC | ≤ 0.2
ITDG | ≤ 0.2
PSVP | ≤ 0.2
RSNC | ≤ 0.2
QRTW | 0.266
PYNE | ≤ 0.2
NDLG | ≤ 0.2
LSWS | ≤ 0.2

Variant | one-hybrid fitness for binding NBS DNA
ADYM | ≤ 0.2
AGSW | ≤ 0.2
QENT | ≤ 0.2
VNGF | ≤ 0.2
SFKN | ≤ 0.2
TDNC | ≤ 0.2
VIKE | ≤ 0.2
QVHD | ≤ 0.2
YFSC | ≤ 0.2
RINC | ≤ 0.2
TQMR | ≤ 0.2
RPTM | ≤ 0.2
GEPR | ≤ 0.2
FTVA | ≤ 0.2
TPWT | ≤ 0.2
QKVL | ≤ 0.2
TQHC | ≤ 0.2
VYIC | ≤ 0.2
QSKY | 0.517
PKLR | ≤ 0.2
GSST | ≤ 0.2
FHRT | ≤ 0.2
TGMG | ≤ 0.2
INPS | ≤ 0.2

Variant | one-hybrid fitness for binding NBS DNA
RNMG | ≤ 0.2
YWSP | ≤ 0.2
AYQQ | ≤ 0.2
EHAC | ≤ 0.2
HGHL | ≤ 0.2
SSGP | ≤ 0.2
VCPG | ≤ 0.2
NRKE | ≤ 0.2
LYIC | ≤ 0.2
TYNT | ≤ 0.2
RQRI | ≤ 0.2
KLRD | ≤ 0.2
PEQK | ≤ 0.2
PGAF | ≤ 0.2
TMYW | ≤ 0.2
NALE | ≤ 0.2
VVNN | ≤ 0.2
EMIL | ≤ 0.2
HPGC | ≤ 0.2
VEGP | ≤ 0.2
PEPE | ≤ 0.2
AQTT | ≤ 0.2
TWTF | ≤ 0.2
EYKS | ≤ 0.2

Variant | one-hybrid fitness for binding NBS DNA
QPSD | ≤ 0.2
EQSG | ≤ 0.2
QFSV | ≤ 0.2
NQHQ | ≤ 0.2
WCRR | 0.223
YHPY | ≤ 0.2
RFTA | ≤ 0.2
QMAK | ≤ 0.2
TPFL | ≤ 0.2
EPMD | ≤ 0.2
QNNR | 0.287
GNME | ≤ 0.2
AEQG | ≤ 0.2
TFAT | ≤ 0.2
QGEP | ≤ 0.2
RSYM | ≤ 0.2
AHNV | ≤ 0.2
TVVP | ≤ 0.2
YNQP | ≤ 0.2
LDSA | ≤ 0.2
ATNL | ≤ 0.2
YVLS | ≤ 0.2
VTEC | ≤ 0.2
ANHE | ≤ 0.2

Variant | one-hybrid fitness for binding NBS DNA
EDRV | ≤ 0.2
QLMH | ≤ 0.2
PPDP | ≤ 0.2
RNVL | ≤ 0.2
PVEW | ≤ 0.2
RLDI | ≤ 0.2
RGEV | ≤ 0.2
QYRC | 0.38
FHLR | ≤ 0.2
PVRK | ≤ 0.2
LSAM | ≤ 0.2
RHKN | 0.205
CKTA | ≤ 0.2
TSCD | ≤ 0.2
LPSR | ≤ 0.2
PYRN | ≤ 0.2
SGNP | ≤ 0.2
RACE | ≤ 0.2
